Each structure is given as a SMILES string. Hit rate of the full screen: of about 48,000 compounds, about 450 (0.94%) were called active. Roughly 19% stayed inconclusive and do not appear here. The call rests on the fitted dose curve; in most records, active means well fitted inhibition curve with a large enough effect; inconclusive means small, poorly fitted or top-dose-only effect; inactive means no such curve, though single readings can be large or run the other way. The list shows a part of the results.

This assay in a line: Primary qHTS for Identification of Small Molecule Inhibitors of Huntingtin Promoter Activity. Further: nearly all actives have a fitted effect of over 50% in size. The note with it: HEK293 HTT promoter firefly luciferase reporter (activity 0% = vehicle and -100% = no light), 24 h; series mostly up to 57.5 µM; activity change, negative = inhibition: at the top concentration. In short, it runs like this: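 Firefly luciferase readout (Dual-Glo, 10 min RT) after 24 h, 37 °C compound exposure (final up to 57.5 uM) of HEK293 reporter cells cultured 24 h beforehand; PTC124 at 50 uM final as control inhibitor; activity scaled vehicle 0%, zero RLU -100%.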
Take `CCC(=O)N1N=C(c2ccc(OC)cc2)CC1c1cn(-c2ccccc2)nc1-c1cccs1` (centres undefined): the “activity change, negative = inhibition” value is inactive: -11.6%. To `O=C(Cn1ccn(-c2ccc(F)cc2)c(=O)c1=O)NCCc1ccccc1` belongs inactive: -12.9%; to `CCOc1ccc(N(c2nc(-c3ccc(OC)c(OC)c3)no2)c2nc(-c3ccc(OC)c(OC)c3)no2)cc1`, inactive: 10.1%. The value for `COC(=O)CSc1nc2c(cnn2-c2ccc(F)cc2)c(=O)[nH]1` was inactive: -18.5%; that for `CCc1ccc(NC(=O)CC2C(=O)OCCN2CC)cc1` (centres undefined) was inactive: -1.87%.

For the compound `Cc1oc(-c2cccc(Br)c2)nc1CN1CCC(C(=O)NCCc2ccc(Cl)cc2)CC1`, the “activity change, negative = inhibition” value is inactive: 5.98%.

With `CCOc1ccccc1NC(=O)C(CC(C)C)NS(=O)(=O)c1ccc2c(c1)CCN2C(C)=O` (centres undefined), the “activity change, negative = inhibition” value is inactive: -15.3%. The value for `CCc1ccccc1NC(=O)Cn1ncc2c(C)n(Cc3ccccc3F)c(C)c2c1=O` was inactive: -14.3%. The value for `CC(C)CNC(=O)CCSc1nc(-c2ccc3c(c2)OCO3)cc(C(F)(F)F)n1` was inactive: -4.15%.

For `O=C(Cn1c(=O)n(Cc2nc(-c3ccccc3)no2)c(=O)c2cc3c(cc21)OCO3)Nc1ccc(Cl)cc1`, the “activity change, negative = inhibition” value is inactive: -14.9%. The value for `Cc1ccc(C)c(N2CCN(c3ccc(NC(=O)c4cccs4)cc3C(=O)O)CC2)c1` was inactive: -11.6%; that for `CC(C)[C@H](N)C(=O)OCCOCn1cnc2c(=O)[nH]c(N)nc21` was “inactive”; that for `CCOc1ccc(-n2c(=O)c3c(C)c(C)sc3n(CC(=O)c3ccccc3)c2=O)cc1` was inactive: -18.2%.

`CCN(CC)CCCNC(=O)c1c(C)oc2ncn(CC(C)C)c(=O)c12`: the “activity change, negative = inhibition” value is inactive: -21.5%. To `CCc1ccc(-n2nc(C)c3c(C)cc(=O)n(CC(=O)Nc4ccc(C)c(F)c4)c32)cc1` belongs inactive: -8.3%; to `CCCCN(C)S(=O)(=O)c1cc(-c2nnc3c4ccccc4c(C)nn23)ccc1C`, inactive: 2.75%. With `CN(C)c1ccc(NC(=O)CCSc2nc(-c3ccco3)cc(C(F)(F)F)n2)cc1`, the “activity change, negative = inhibition” value was inactive: 3.64%. The value for `COc1cccc(OC)c1-c1cc(C(=O)NC2(C(=O)O)C3CC4CC(C3)CC2C4)nn1-c1ccnc2cc(Cl)ccc12` (centres undefined) was inactive: 5.03%; that for `CC1CCc2c(sc(NC(=O)CCCOc3ccc(C(C)(C)C)cc3)c2C(N)=O)C1` (centres undefined) was inactive: -16.4%. The value for `COc1cc(Br)c(C2CC(=O)Nc3cc(OC)c(OC)c(OC)c32)cc1OC` (centres undefined) was inactive: -16.5%; that for `COCCCNC(=O)c1cc2c(=O)n3cccc(C)c3nc2s1` was inactive: 21.8%. The value for `CO[C@@H]1[C@@H](OC(N)=O)[C@@H](O)[C@H](Oc2ccc3c(O)c(NC(=O)c4ccc(O)c(CC=C(C)C)c4)c(=O)oc3c2C)OC1(C)C` was “inactive”; that for `CCCCc1nc2ccccc2n2c(-c3ccc(C)cc3)c3c(=O)n(C)c(=O)n(C)c3c12` was inactive: -7.52% [at 11.5 µM]. As to `CSc1cccc(NC(=O)CN(c2ccccc2)S(=O)(=O)N(C)C)c1`, the “activity change, negative = inhibition” value is inactive: -2.1%. To `CC1CCN(S(=O)(=O)c2ccc3c(c2)N(CC(=O)NC(C)c2ccccc2)C(=O)CO3)CC1` (centres undefined) belongs inactive: -13.6%. To `Cc1cc(N2CCCCC2)nc2ccc(NC(=O)c3cccc(F)c3)cc12` belongs inactive: -18%; to `CCCc1nnc(NC(=O)Cc2coc3cc(C)cc(C)c23)s1`, inactive: -16.1%; to `CCCN1CCN(CCCNC(=O)c2cnn(-c3ccc(F)cc3)c2-n2cccc2)CC1`, inactive: -30.8%. The value for `O=C(Cn1c(=O)n(-c2ccccc2)c(=O)c2sc3ccccc3c21)N1CCCC1` was inactive: 4.71%. Consider `O=[N+]([O-])c1cc(-c2nc(-c3cccnc3)no2)ccc1NCc1ccccc1`, for which the “activity change, negative = inhibition” value was inactive: -5.45%. The value for `CC(C)c1ccc(NC(=O)CN2C(=O)COc3ccc(S(=O)(=O)Nc4ccccc4)cc32)cc1` was inactive: -25.6%; that for `CC(C)OCCCNC(=O)CCCn1c(SCC(=O)c2ccc(F)cc2)nc2c(sc3ccccc32)c1=O` was inactive: -9.47%; that for `COc1ccc(CCNC(=O)c2nnc(Cc3ccc(Cl)cc3)o2)cc1OC` was inactive: -20.6%. To `O=Nc1c(-c2c(O)[nH]c3cc(Br)ccc23)[nH]c2ccccc12` belongs inactive: -7.53%; to `COc1ccc(-c2nn3c(=O)cc(CN4CCN(C(=O)Nc5ccc(C)c(Cl)c5)CC4)nc3s2)cc1`, inactive: -10.6%. On to `Cc1ccc2oc(=O)c3cnn(CC(=O)Nc4cccc(C(F)(F)F)c4)c3c2c1`, for which the “activity change, negative = inhibition” value is inactive: -3.35%.

Take `Cc1c(C(=O)NCc2ccccc2)sc2nc3n(c(=O)c12)CCC3`: the “activity change, negative = inhibition” value is inactive: 44.1%. To `CCCOC(=O)c1ccc(NC(=O)Cc2csc(C)n2)cc1` belongs inactive: 4.1%. To `CCC(=O)N1CCc2cc(Br)cc(S(=O)(=O)NCc3ccc(Cl)cc3)c21` belongs inactive: -12.6%; to `COc1ccc(N2CCN(C(=O)c3ccc(CS(=O)(=O)c4ccc(Br)cc4)o3)CC2)cc1`, inactive: -14.8%. Consider `CN(C)CCNC(=O)CCCN1C(=O)c2cccnc2Oc2ccc(Cl)cc21`, for which the “activity change, negative = inhibition” value was inactive: 11.9%.

`CCN(c1ccccc1)c1nnc(NC(=O)Nc2cccc(Br)c2)s1`: the “activity change, negative = inhibition” value is inactive: -8.45%.

As to `Cc1cc(C)cc(-n2ccn(CC(=O)Nc3ccccc3C(F)(F)F)c(=O)c2=O)c1`, the “activity change, negative = inhibition” value was inactive: -12.4%. The value for `Cc1ccc(N2CC(C)Cn3c2nc2c3c(=O)n(CC(=O)O)c(=O)n2C)cc1` (centres undefined) was inactive: 0.908%; that for `COCCCNC(=O)CSc1c2c(nc3ccc(Cl)cc13)CCCC2` was inactive: -12.3%; that for `CCN(c1ccc(OC)cc1)S(=O)(=O)c1nnc(NC(=O)c2ccccc2Cl)s1` was inactive: -17.3%. Take `CCOc1ccc(C2c3c(oc4ccc(C)cc4c3=O)C(=O)N2Cc2ccc3c(c2)OCO3)cc1OC` (centres undefined): the “activity change, negative = inhibition” value was inactive: 4.69%. To `Cc1nc(-c2ccccc2)sc1CCNC(=O)c1ccco1` belongs inactive: -8.67%; to `CCc1ccccc1NC(=O)CSc1ncc2c(n1)-c1ccccc1N(Cc1ccc(C)cc1)S2(=O)=O`, inactive: -19.5%. As to `Cc1ccc(S(=O)(=O)c2cn(Cc3ccccc3)c3cc(N4CCCC4)c(F)cc3c2=O)cc1C`, the “activity change, negative = inhibition” value is inactive: -15.3%. On to `COc1ccccc1CNS(=O)(=O)c1c(C)nc2sccn2c1=O`, for which the “activity change, negative = inhibition” value is inactive: 0.959%. To `CCOC(=O)c1ccccc1NS(=O)(=O)c1c(-c2ccc(C)cc2)csc1C(=O)OC` belongs inactive: -8.15%; to `COc1cccc(CNC(=O)CCc2c(C)c3cc4c(C)c(C)oc4cc3oc2=O)c1`, inactive: 5.21%; to `O=C(Nc1ccc(NC(=O)c2cccs2)cc1)c1ccc(Br)cc1`, inactive: -14.5%. To `CC(C)(C)C(=O)Nc1ccc2nc(SCC(=O)N3CCCC3)sc2c1` belongs inactive: 24.6%; to `O=C(OCc1ccccc1Cl)c1ccc(-c2nnn(Cc3ccccc3)n2)cc1`, inactive: 10.3%; to `CCN(CCCNC(=O)c1cc2cc3cc(C)ccc3nc2s1)c1cccc(C)c1`, inactive: 0%. Consider `NCC1CCC(C(=O)Oc2ccc(CCC(=O)O)cc2)CC1` (centres undefined), for which the “activity change, negative = inhibition” value was inactive: -23.4%. The value for `COc1ccc(/C=C(/C#N)c2nc(-c3ccc(-c4ccccc4)cc3)cs2)cc1` was inactive: 2.86%.

The values are drawn from PubChem BioAssay AID1508623 (National Center for Advancing Translational Sciences (NCATS), 2021).
